Over roughly 33,000 sequences, “E-score (-0.5 to 0.5)” has its median near -0.035; the highest 2% begin near 0.34. The list shows a part of the results.
What follows are sequences tested against T1, Mot3 (UniProt P54785) (assay: PBM E-score (8-mer binding enrichment) (E-score (-0.5 to 0.5)); higher = stronger / more preferred TF binding; most listed sequences are background and not binding sites). Details: protein concentration: 200 nM; construct: GST-full length.
T1 sequence: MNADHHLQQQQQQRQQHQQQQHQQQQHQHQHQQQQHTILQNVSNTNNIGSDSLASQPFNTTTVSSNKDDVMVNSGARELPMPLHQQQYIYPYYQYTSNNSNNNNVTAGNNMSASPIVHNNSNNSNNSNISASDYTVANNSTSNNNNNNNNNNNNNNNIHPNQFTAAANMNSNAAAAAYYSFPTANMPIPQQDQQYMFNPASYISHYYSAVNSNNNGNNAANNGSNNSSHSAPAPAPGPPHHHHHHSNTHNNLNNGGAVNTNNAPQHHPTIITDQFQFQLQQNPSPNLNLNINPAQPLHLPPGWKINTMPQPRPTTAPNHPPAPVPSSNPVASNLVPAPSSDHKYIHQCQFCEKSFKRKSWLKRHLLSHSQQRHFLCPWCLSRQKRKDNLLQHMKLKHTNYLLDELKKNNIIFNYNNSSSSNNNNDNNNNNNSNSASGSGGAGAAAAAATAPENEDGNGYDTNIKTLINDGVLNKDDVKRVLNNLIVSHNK
Summary of the method: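 Each ungapped eight-base word and its reverse complement, pooled, received an E-score from the Universal PBM Analysis Suite. Underlying scans, normalised with masliner, recorded fluorescent anti-GST bound to GST-tagged yeast transcription factors. These were applied at about 100-200 nM to universal all-10-mer Agilent arrays double-stranded by primer extension.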

Sequence	PBM E-score
ATATCCCA	-0.0768
ACGAACGC	0.0891
ACGTTAGG	0.137
TAAAGAAA	0.259
AGCTACGC	-0.00018
CTTAGCTA	-0.0227
ACGCCTCG	-0.0206
CTTCTCTC	-0.0299
GGTAGTCA	-0.163
ATCACCAG	-0.159
ACTGAAAA	-0.0071
CGCGGATA	0.0845
ACAAGGGT	0.216
ACATGGGT	0.242
CTGACCGC	-0.15
AAGGATAG	-0.208
TCATAGGA	0.0261
GGAACTCA	-0.0291
TCATGGAA	-0.0193
AGTAGCAC	-0.124
ACGGATCT	-0.14
GTATTCGA	0.0788

Sequence	PBM E-score
GTGGGCGA	-0.197
ACAGACCA	-0.0345
ACTAGTAT	0.133
CAGAGGAC	-0.229
ATAGAACC	-0.168
CCGGAGAC	-0.188
GCGTTGTA	0.235
CTAGCCAC	-0.0523
CCATGAAA	0.0774
GCGAAGCA	0.00953
AGTAGCCC	-0.277
CGCAGTTC	-0.0813
CCACTAAG	0.0148
AGTGGCAT	-0.249
CTTCGGGC	-0.157
GGTACTAC	0.162
AGGACTGC	-0.361
AGACTCAG	-0.272
CACCGATG	0.0123
CCCGATTA	-0.0246
TATTGGGA	-0.00069
GGAGGACC	-0.34

Sequence	PBM E-score
AGATTTTA	0.108
CTGCACAG	0.0307
CACACCAG	0.133
AATCCCCA	0.0522
ACGACGCA	0.149
AGTTTTGC	0.156
CGGACTAA	0.153
GGGAAGAC	-0.306
TAGCTAAA	-0.134
AGGGATGG	-0.13
ACCTTTGA	0.0366
CAGCCGCA	-0.272
GCAATCGA	0.00258
CGGGTAAC	-0.0233
ACCAGCGA	-0.19
ACGTCATG	0.0693
ATTACGCG	0.377
ATCCTCAA	-0.111
GTATCCAA	-0.0981
GAATTCAC	0.00672
ATTGACAG	-0.0116
GAAAGTCC	-0.191

Sequence	PBM E-score
AAATTAGA	0.0473
TCCAATCA	-0.0285
CTCGTTGA	-0.0503
CACCGGAA	-0.0631
CCATGTGA	0.141
GACACATA	0.167
AGGAACTC	0.396
AGTAACGA	-0.0297
AAGGTAGT	-0.0675
AACGCAGC	0.0742
CGCTTGAG	-0.145
AAGCGACA	-0.121
AATTTCGT	0.0592
AGATAAAA	0.0842
AATCGCCG	-0.211
GCCGGTGA	-0.159
CACCGTCC	-0.193
CGATATCA	-0.0141
AGGCCGCA	-0.18
ATTATATA	0.118

From the supplement of paper PMC3334620
